# The list shows a part of the results.
# Key:
# Experiment in all cases: glycan array binding signal (z-score within array); higher = stronger binding
# Conditions in all cases: glycan notation: IUPAC condensed, linker removed
# [1] = molecular target: Neu5Ac(a2-3)Gal(b1-4)GlcNAc6S(b1-3)Gal6S(b1-3)GlcNAc6S
# How it was run: (§1)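 Arrays were curated from the Consortium for Functional Glycomics database, 3228 in total, and kept only where the protein sequence was available. Binding is expressed as a within-array Z-score. This score was averaged across arrays of the same protein sequence at different concentrations or buffers and across linkers, and negative values can be read as non-binding.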
# [2] = molecular target: Neu5Ac(a2-3)Gal(b1-4)[3dFuc(a1-3)]GlcNAc(b1-3)Gal
# How it was run: as §1
# [3] = molecular target: Neu5Ac(a2-3)Gal(b1-4)[4dFuc(a1-3)]GlcNAc(b1-3)Gal
# How it was run: as §1
# [4] = molecular target: Neu5Ac(a2-3)Gal(b1-4)[6dTal(a1-3)]GlcNAc(b1-3)Gal
# How it was run: as §1
# [5] = molecular target: Neu5Ac(a2-3)Gal(b1-4)[Fuc(a1-3)]Glc
# How it was run: as §1
# [6] = molecular target: Neu5Ac(a2-3)Gal(b1-4)[Fuc(a1-3)]GlcNAc
# How it was run: as §1
# [7] = molecular target: Neu5Ac(a2-3)Gal(b1-4)[Fuc(a1-3)]GlcNAc(b1-2)Man
# How it was run: as §1
# [8] = molecular target: Neu5Ac(a2-3)Gal(b1-4)[Fuc(a1-3)]GlcNAc(b1-3)Gal
# How it was run: as §1
# [9] = molecular target: Neu5Ac(a2-3)Gal(b1-4)[Fuc(a1-3)]GlcNAc(b1-3)Gal(b1-4)Glc
# How it was run: as §1
# [10] = molecular target: Neu5Ac(a2-3)Gal(b1-4)[Fuc(a1-3)]GlcNAc(b1-3)Gal(b1-4)GlcNAc
# How it was run: as §1
# [11] = molecular target: Neu5Ac(a2-3)Gal(b1-4)[Fuc(a1-3)]GlcNAc(b1-3)Gal(b1-4)[Fuc(a1-3)]GlcNAc(b1-3)Gal(b1-4)Glc
# How it was run: as §1
# [12] = molecular target: Neu5Ac(a2-3)Gal(b1-4)[Fuc(a1-3)]GlcNAc(b1-3)Gal(b1-4)[Fuc(a1-3)]GlcNAc(b1-3)Gal(b1-4)[Fuc(a1-3)]GlcNAc
# How it was run: as §1
# [13] = molecular target: Neu5Ac(a2-3)Gal(b1-4)[Fuc(a1-3)]GlcNAc(b1-3)GalNAc
# How it was run: as §1
# [14] = molecular target: Neu5Ac(a2-3)Gal(b1-4)[Fuc(a1-3)]GlcNAc(b1-4)GalNAc(b1-3)Gal(b1-4)Glc
# How it was run: as §1
# [15] = molecular target: Neu5Ac(a2-3)Gal(b1-4)[Fuc(a1-3)]GlcNAc(b1-6)Gal(b1-4)Glc
# How it was run: as §1
# [16] = molecular target: Neu5Ac(a2-3)Gal(b1-4)[Fuc(a1-3)]GlcNAc(b1-6)[Gal(b1-3)]GalNAc
# How it was run: as §1
# [17] = molecular target: Neu5Ac(a2-3)Gal(b1-4)[Fuc(a1-3)]GlcNAc(b1-6)[Neu5Ac(a2-3)Gal(b1-3)]GalNAc
# How it was run: as §1
# [18] = molecular target: Neu5Ac(a2-3)Gal(b1-4)[Fuc(a1-3)]GlcNAc6S
# How it was run: as §1
# [19] = molecular target: Neu5Ac(a2-3)Gal(b1-4)[Fuc(a1-3)]GlcNAc6S(b1-3)Gal(b1-4)Glc
# How it was run: as §1
# [20] = molecular target: Neu5Ac(a2-3)Gal(b1-4)[Fuc2Me(a1-3)]GlcNAc(b1-3)Gal
# How it was run: as §1
# [21] = molecular target: Neu5Ac(a2-3)Gal(b1-4)[Qui(a1-3)]GlcNAc(b1-3)Gal
# How it was run: as §1
# [22] = molecular target: Neu5Ac(a2-3)Gal(b1-4)[Rha(a1-3)]GlcNAc(b1-3)Gal
# How it was run: as §1
# Neu5Ac(a2-3)Gal3S = molecular target: Neu5Ac(a2-3)Gal3S
# How it was run: as §1
# [23] = molecular target: Neu5Ac(a2-3)Gal6S(b1-4)GlcNAc
# How it was run: as §1
# [24] = molecular target: Neu5Ac(a2-3)Gal6S(b1-4)[Fuc(a1-3)]GlcNAc
# How it was run: as §1
# [25] = molecular target: Neu5Ac(a2-3)Gal6S(b1-4)[Fuc(a1-3)]GlcNAc(b1-3)Gal(b1-4)Glc
# How it was run: as §1
# [26] = molecular target: Neu5Ac(a2-3)Gal6S(b1-4)[Fuc(a1-3)]GlcNAc6S(b1-3)Gal(b1-4)Glc
# How it was run: as §1
# Neu5Ac(a2-3)GalNAc = molecular target: Neu5Ac(a2-3)GalNAc
# How it was run: as §1
# [27] = molecular target: Neu5Ac(a2-3)GalNAc(b1-4)GlcNAc
# How it was run: as §1
# [28] = molecular target: Neu5Ac(a2-3)GalNBz(b1-4)GlcNAc
# How it was run: as §1
# [29] = molecular target: Neu5Ac(a2-3)[GalNAc(b1-4)]Gal(b1-3)Gal
# How it was run: as §1
# [30] = molecular target: Neu5Ac(a2-3)[GalNAc(b1-4)]Gal(b1-3)GalNAc(b1-4)[Neu5Ac(a2-3)]Gal(b1-4)Glc
# How it was run: as §1
# [31] = molecular target: Neu5Ac(a2-3)[GalNAc(b1-4)]Gal(b1-3)Glc
# How it was run: as §1
# [32] = molecular target: Neu5Ac(a2-3)[GalNAc(b1-4)]Gal(b1-4)Glc
# How it was run: as §1
# [33] = molecular target: Neu5Ac(a2-3)[GalNAc(b1-4)]Gal(b1-4)GlcNAc
# How it was run: as §1
# [34] = molecular target: Neu5Ac(a2-3)[GalNAc(b1-4)]Gal(b1-4)GlcNAc(b1-3)GalNAc
# How it was run: as §1
# [35] = molecular target: Neu5Ac(a2-3)[GalNAc(b1-6)]Gal(b1-4)Glc
# How it was run: as §1
# [36] = molecular target: Neu5Ac(a2-3)[Neu5Ac(a2-6)]GalNAc
# How it was run: as §1
binder,measurement,setting,value
"CLEC5A (Homo sapiens), Q9NY25 (protein) MNWHMIISGLIVVVLKVVGMTLFLLYFPQIFNKSNDGFTTTRSYGTVSQIFGSSSPSPNGFITTRSYGTVCPKDWEFYQARCFFLSTSESSWNESRDFCKGKGSTLAIVNTPEKLKFLQDITDAEKYFIGLIYHREEKRWRWINNSVFNGNVTNQNQNFNCATIGLTKTFDAASCDISYRRICEKNAK",glycan array binding signal (z-score),[1],-0.32
same,glycan array binding signal (z-score),[2],-0.32
same,glycan array binding signal (z-score),[3],1.51
same,glycan array binding signal (z-score),[4],1.13
same,glycan array binding signal (z-score),[5],0.21
same,glycan array binding signal (z-score),[6],-0.2
same,glycan array binding signal (z-score),[7],-0.11
same,glycan array binding signal (z-score),[8],-0.337
same,glycan array binding signal (z-score),[9],0.114
same,glycan array binding signal (z-score),[10],0.317
same,glycan array binding signal (z-score),[11],-0.32
same,glycan array binding signal (z-score),[12],-0.471
same,glycan array binding signal (z-score),[13],1.67
same,glycan array binding signal (z-score),[14],-0.32
same,glycan array binding signal (z-score),[15],-0.32
same,glycan array binding signal (z-score),[16],0.698
same,glycan array binding signal (z-score),[17],0.212
same,glycan array binding signal (z-score),[18],-0.319
same,glycan array binding signal (z-score),[19],-0.32
same,glycan array binding signal (z-score),[20],0.548
same,glycan array binding signal (z-score),[21],-0.32
same,glycan array binding signal (z-score),[22],-0.32
same,glycan array binding signal (z-score),Neu5Ac(a2-3)Gal3S,-0.32
same,glycan array binding signal (z-score),[23],-0.394
same,glycan array binding signal (z-score),[24],0.366
same,glycan array binding signal (z-score),[25],-0.32
same,glycan array binding signal (z-score),[26],-0.32
same,glycan array binding signal (z-score),Neu5Ac(a2-3)GalNAc,-0.191
same,glycan array binding signal (z-score),[27],-0.212
same,glycan array binding signal (z-score),[28],-0.32
same,glycan array binding signal (z-score),[29],-0.32
same,glycan array binding signal (z-score),[30],-0.32
same,glycan array binding signal (z-score),[31],-0.32
same,glycan array binding signal (z-score),[32],-0.312
same,glycan array binding signal (z-score),[33],-0.098
same,glycan array binding signal (z-score),[34],-0.136
same,glycan array binding signal (z-score),[35],-0.32
same,glycan array binding signal (z-score),[36],0.058

# Reference: the supplement of paper PMC8728848
